Structures can show the parent of a compound that is named as a salt. The list shows a part of the results. Repeats are few or missing, and single values can be far off.
System: Beas-2B AQP5-HiBiT reporter cells
Experiment: AQP5-HiBiT luminescence relative to vehicle (ratio to vehicle); higher = higher AQP5-HiBiT protein abundance
Settings: 10 µM; 18 h
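Further: monoclonal Beas-2B line stably carrying CMV promoter-driven AQP5-HiBiT, 5,000 cells per well in 384-well plates, lytic HiBiT plus LgBiT NanoLuc luminescence, FDA-approved drug library screen.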

SMILES | AQP5-HiBiT luminescence
N#Cc1ccc(C(c2ccc(C#N)cc2)n2cncn2)cc1 [Letrozole] | 0.893
COC(=O)Nc1nc2cc(C(=O)c3ccccc3)ccc2[nH]1 [Mebendazole] | 2.54
O=C(CCCCC(=O)Nc1c(I)cc(I)c(C(=O)O)c1I)Nc1c(I)cc(I)c(C(=O)O)c1I [Iodipamide] | 0.77
CCC(=O)OCC(=O)[C@@]1(OC(=O)CC)[C@@H](C)C[C@H]2[C@@H]3CCC4=CC(=O)C=C[C@]4(C)[C@@]3(F)[C@@H](O)C[C@@]21C [Betamethasone dipropionate] | 0.902
CN(C)[C@@H]1C(O)=C(C(N)=O)C(=O)[C@@]2(O)C(O)=C3C(=O)c4c(O)cccc4[C@@](C)(O)[C@H]3C[C@@H]12 [Tetracycline hydrochloride] | 1.02
O=C(O)c1cc(-c2ccc(F)cc2F)ccc1O [Diflunisal] | 1.02
O=C(Nc1c(Cl)cncc1Cl)c1ccc(OC(F)F)c(OCC2CC2)c1 [Roflumilast] | 0.957
C[C@]12C=CC(=O)C=C1CC[C@@H]1[C@@H]2C(=O)C[C@@]2(C)[C@H]1CC[C@]2(O)C(=O)CO [Prednisone] | 0.958
COC(=O)N[C@H](C(=O)N1CCC[C@H]1c1ncc(-c2ccc(-c3ccc(-c4cnc([C@@H]5CCCN5C(=O)[C@@H](NC(=O)OC)C(C)C)[nH]4)cc3)cc2)[nH]1)C(C)C | 1.29
N[C@@H](Cc1ccc(O)c(O)c1)C(=O)O [Levodopa] | 0.727
COc1ccc(C[C@@H]2c3cc(OC)c(OC)cc3CC[N@+]2(C)CCC(=O)OCCCCCOC(=O)CC[N@@+]2(C)CCc3cc(OC)c(OC)cc3[C@H]2Cc2ccc(OC)c(OC)c2)cc1OC [Cisatracurium besylate] | 0.876
NS(=O)(=O)c1cc2c(cc1Cl)N=CNS2(=O)=O [Chlorothiazide] | 0.93
CC1(C)C[C@@H]1C(=O)N/C(=C\CCCCSC[C@H](N)C(=O)O)C(=O)O [Cilastatin] | 0.63
CCCCCCCCCCC[C@@H](C[C@@H]1OC(=O)[C@H]1CCCCCC)OC(=O)[C@H](CC(C)C)NC=O [Orlistat] | 1.23
C[C@H]1C[C@H]2[C@@H]3CCC4=CC(=O)C=C[C@]4(C)[C@@]3(F)[C@@H](O)C[C@]2(C)[C@@]1(O)C(=O)CO [Betamethasone] | 0.504
COc1c(C)c2c(c(O)c1C/C=C(\C)CCC(=O)O)C(=O)OC2 [Mycophenolic acid] | 0.574
CN1CCc2nc(C(=O)N[C@@H]3C[C@@H](C(=O)N(C)C)CC[C@@H]3NC(=O)C(=O)Nc3ccc(Cl)cn3)sc2C1 [Edoxaban] | 0.722
CO[C@@H]1[C@@H](OC(N)=O)[C@@H](O)[C@H](Oc2ccc3c(O)c(NC(=O)c4ccc(O)c(CC=C(C)C)c4)c(=O)oc3c2C)OC1(C)C [Albamycinsodium] | 0.59
CC(C)C[C@H](NC(=O)[C@H](Cc1ccccc1)NC(=O)c1cnccn1)B(O)O [Bortezomib (PS-341)] | 98.7
CN1CCC(OC(c2ccccc2)c2ccccc2)CC1 [Diphenylpyraline hydrochloride] | 0.872
N#C/C(=C1/SC[C@@H](c2ccc(Cl)cc2Cl)S1)n1ccnc1 [Luliconazole] | 0.698
CC1(C)NC(=O)N(c2ccc([N+](=O)[O-])c(C(F)(F)F)c2)C1=O [Nilutamide] | 0.906
CNC(=O)c1ccc(N2C(=S)N(c3ccc(C#N)c(C(F)(F)F)c3)C(=O)C2(C)C)cc1F [Enzalutamide (MDV3100)] | 0.815
OCCOc1ccc(/C(=C(/CCCl)c2ccccc2)c2ccccc2)cc1 [Ospemifene] | 0.885
CC(=O)c1ccc(S(=O)(=O)NC(=O)NC2CCCCC2)cc1 [Acetohexamide] | 0.835
Nc1nc2c(ncn2COCCO)c(=O)[nH]1 [Aciclovir] | 1.02
CCCc1nn(C)c2c(=O)[nH]c(-c3cc(S(=O)(=O)N4CCN(C)CC4)ccc3OCC)nc12 [Sildenafil citrate] | 0.723
CO/N=C(\C(=O)N[C@@H]1C(=O)N2C(C(=O)OCOC(=O)C(C)(C)C)=C(/C=C\c3scnc3C)CS[C@H]12)c1csc(N)n1 [Cefditoren pivoxil] | 1.38
C#C[C@]1(O)CC[C@H]2[C@@H]3CCC4=C(CCC(=O)C4)[C@H]3CC[C@@]21C [Norethynodrel] | 0.836
CC(c1cc2ccccc2s1)N(O)C(N)=O (stereo not given) [Zileuton] | 1.16

Reference: the supplement of paper PMC8821664
